Experimental data from the supplement of paper PMC10126150.
Sequences with one replicate were seen in a single cluster, so their values are uncertain.

Test system: ATP
Experiment: switch fluorescence ratio, 500 uM ATP over buffer (Cy3 cluster intensity, sum of 5 cycles each) (fold (ratio)); higher = stronger signal-on switching upon ATP binding; sequences stand for … in TCGTCGGCAGCGTCAGATGTGTATAAGAGACAGTTTTTTTTTTTTTTTTTTTTTTTTT…TC
Details: aptamer strand: ATP DNA aptamer (quencher-CACCTGGGGGAGTATTGCGGAGGAAGG + anchor), 100 nM annealed; ATP concentration: 500 uM; one replicate
Outline: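 Cy3-labelled switching-strand clusters on a modified Illumina MiSeq flow-cell were annealed to 100 nM quencher-labelled ATP aptamer and imaged first in selection buffer, then after 15 min with 500 uM ATP at 22 °C. NaOH stripping and re-annealing separated each of five buffer/ATP cycles, and clusters outside 100-1000 RFU were excluded. The fluorescence ratio sums target-cycle Cy3 intensity over buffer-cycle Cy3 intensity per cluster and averages it per switch-domain sequence.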
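Also: ATP exposure 15 min at 22 °C before imaging.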

| Sequence | switch fluorescence ratio |
| --- | --- |
| AGGACGGTTA | 1.04 |
| AACGGGCGGT | 1.02 |
| AACGTGTTCG | 1.03 |
| GTCAATAAT | 1.05 |
| GGACTAACAT | 1.15 |
| CGCGGGCACA | 1.1 |
| CAATCGACCC | 1.93 |
| CCGAGCTTCT | 2.09 |
| TGCTGTAA | 1.15 |
| ATTCGATTCC | 1.07 |
| AAATACGTGC | 1.07 |
| TATCGCTTAT | 1.01 |
| TGGTGGATAT | 1.03 |
| GTTAGGCCCC | 1 |
| CCATTCCGGA | 1.02 |
| GTCAAACTT | 1 |
| GTTTCTAATC | 1.01 |
| TGCCCGAACT | 0.998 |
| GAGAATTTGC | 1.04 |
| GTTACGTCAC | 1.76 |
| AGCGAGATCT | 1.02 |
| AAGATGAGTG | 0.947 |

| Sequence | switch fluorescence ratio |
| --- | --- |
| CGTCGAGACA | 1 |
| GTGAGGGAAA | 0.965 |
| ACTGGTTTGC | 1 |
| GTAGAATCGT | 0.996 |
| TGTCGACCTC | 1.03 |
| TTAGTACGGA | 1.03 |
| CCCACTCGGG | 1.02 |
| AGACTTTGAT | 1.01 |
| AGGTTCTGC | 0.976 |
| CGCCCGTCAT | 1.05 |
| ATACCGTCCG | 1.08 |
| AAGAGTGGAA | 1.01 |
| AACACGGATC | 1.01 |
| TTAGAATCAT | 0.993 |
| ACATGGCTAG | 1.03 |
| CAAATTAGAG | 0.972 |
| AAGGCATCTA | 1.01 |
| GTGCTGCTG | 1.1 |
| AATGATAGCT | 1 |
| GGGTGTCATC | 0.972 |
| TCCTAGTAAT | 1.57 |
| ATATTTGACG | 1.04 |

| Sequence | switch fluorescence ratio |
| --- | --- |
| TCCCGGGCGT | 1.12 |
| CGAGCAGGTG | 3.35 |
| CTGGGATCCC | 1.02 |
| AATTTTGTAC | 1.01 |
| AACTTATTC | 1.02 |
| CGCGTGAATG | 0.987 |
| TAGATTTCAT | 1.02 |
| ACGTGGTATT | 1.01 |
| TACACGTTGT | 1.03 |
| TCCGAAGAGG | 1.2 |
| ATAATGATTC | 1.01 |
| ATGGTCCTTT | 1.02 |
| AGCCTGAGCT | 0.99 |
| ACTGCAGCGC | 1.04 |
| GAATTGAAAT | 0.986 |
| ACACCCTTAG | 1.14 |
| ACCATCAGAC | 1.18 |
| ATAAGGGTCT | 0.925 |
| ACCTCACTGT | 1.32 |
| TACGGACTTC | 1.22 |
| GCGTCTTTTG | 1.07 |
| AGAGGGGAAC | 1.07 |

| Sequence | switch fluorescence ratio |
| --- | --- |
| GTCAGCGCAT | 1.12 |
| GTGGTGTAGT | 1.02 |
| GGGACATGGT | 1.01 |
| GCTTGGTTCC | 1.12 |
| AGGGTGGAGG | 1.05 |
| GTCCCTTTAT | 1.16 |
| ACGGCGCCCG | 0.951 |
| TAATTTGGCA | 0.999 |
| ATATGGACC | 1.06 |
| GTGTATCGGA | 0.981 |
| TTTTGACTCT | 0.983 |
| TGCTTAATCG | 0.981 |
| TGTGCCACTT | 1.01 |
| GTAATCTGGT | 0.965 |
| GCCAATGTTG | 1 |
| CGTTAGGCAT | 0.971 |
| AAGCGAGCTA | 1.02 |
| GCAAGCGGAT | 1.06 |
| AACGGGGGT | 1.02 |
